Results taken from the supplement of paper PMC6531468.
This is one part of the list. These are enrichments in a pooled selection; single values are uncertain. Scores sum up all selected molecules that hold the word; the word was not tested alone.

Tests used:
Experiment in all cases: 6-mer SELEX enrichment z-score vs GST control; IMP3 is the RNA-binding protein IGF2BP3; higher = more enriched by binding
[1] = system: IMP3 KH1-4; conditions: construct: KH1-4 (164-579); SELEX round: R4
Experimental: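 SELEX-seq with GST-tagged IMP3 KH1-4 (Pro164-Lys579) and an N40 RNA pool, round 4. 6-mer z-score of sequence-tag enrichment normalised to the corresponding GST SELEX round; RNA k-mers written as DNA (T for U).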

[2] = system: IMP3 RRM1-2; conditions: construct: RRM1-2 (1-163); SELEX round: R2
Chain of IMP3 RRM1-2 (chain, as listed by the source): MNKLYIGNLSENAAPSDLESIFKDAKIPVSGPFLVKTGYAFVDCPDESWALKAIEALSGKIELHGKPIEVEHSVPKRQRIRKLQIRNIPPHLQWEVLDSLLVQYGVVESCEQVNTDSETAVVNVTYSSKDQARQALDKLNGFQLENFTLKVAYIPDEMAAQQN
Experimental: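 SELEX-seq with GST-tagged IMP3 RRM1-2 (Met1-Asn163) and an N40 RNA pool, round 2. 6-mer enrichment z-score normalised to GST SELEX. RNA written as DNA (T = U).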

[3] = target: IMP3 full-length (UniProt O00425); conditions: construct: FL IMP3 (1-579); SELEX round: R4
Chain of UniProt O00425 (O00425 whole entry): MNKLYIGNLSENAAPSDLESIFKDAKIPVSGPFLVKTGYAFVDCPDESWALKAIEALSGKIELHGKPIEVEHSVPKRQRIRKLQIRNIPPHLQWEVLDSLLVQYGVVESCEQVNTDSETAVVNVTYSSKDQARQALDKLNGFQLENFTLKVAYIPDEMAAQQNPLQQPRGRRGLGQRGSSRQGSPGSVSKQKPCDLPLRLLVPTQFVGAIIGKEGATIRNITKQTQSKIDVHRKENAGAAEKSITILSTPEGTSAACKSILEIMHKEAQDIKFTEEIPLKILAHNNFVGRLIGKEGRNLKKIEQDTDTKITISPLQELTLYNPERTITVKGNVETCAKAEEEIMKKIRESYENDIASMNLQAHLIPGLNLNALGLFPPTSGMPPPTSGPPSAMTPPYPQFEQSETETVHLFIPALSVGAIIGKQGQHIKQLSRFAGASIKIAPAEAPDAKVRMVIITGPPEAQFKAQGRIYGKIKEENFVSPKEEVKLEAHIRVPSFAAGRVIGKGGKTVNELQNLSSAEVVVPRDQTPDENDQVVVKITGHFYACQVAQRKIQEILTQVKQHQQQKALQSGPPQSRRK
Experimental: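 SELEX-seq with GST-tagged full-length IMP3 and an N40 RNA pool, round 4. Each 6-mer is scored as an enrichment z-score of sequence tags containing it, normalised to the matching GST SELEX round. RNA written as DNA (T = U).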

[4] = system: IMP3 KH1-2; conditions: construct: KH1-2 (164-376); SELEX round: R4
Chain of IMP3 KH1-2 (chain, as listed by the source): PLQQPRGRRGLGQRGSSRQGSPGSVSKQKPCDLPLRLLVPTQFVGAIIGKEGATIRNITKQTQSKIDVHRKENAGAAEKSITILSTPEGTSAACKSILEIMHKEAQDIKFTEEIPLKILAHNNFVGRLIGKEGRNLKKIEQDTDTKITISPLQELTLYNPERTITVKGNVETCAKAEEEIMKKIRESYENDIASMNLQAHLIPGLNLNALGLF
Experimental: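 SELEX-seq with GST-tagged IMP3 KH1-2 (Pro164-Phe376) and an N40 RNA pool, round 4 (stringent 300/600 mM KCl washes). 6-mer z-score of sequence-tag enrichment normalised to the corresponding GST SELEX round; RNA k-mers written as DNA (T for U).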

[5] = system: IMP3 KH3-4; conditions: construct: KH3-4 (377-579); SELEX round: R4
Chain of IMP3 KH3-4 (chain, as listed by the source): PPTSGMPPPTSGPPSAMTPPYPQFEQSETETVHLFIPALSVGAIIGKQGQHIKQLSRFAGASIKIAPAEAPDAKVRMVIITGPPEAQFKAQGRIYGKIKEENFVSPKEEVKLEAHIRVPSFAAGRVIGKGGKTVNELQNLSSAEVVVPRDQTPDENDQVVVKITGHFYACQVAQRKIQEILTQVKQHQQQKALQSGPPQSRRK
Experimental: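 SELEX-seq with GST-tagged IMP3 KH3-4 (Pro377-Lys579) and an N40 RNA pool, round 4. 6-mer z-score of sequence-tag enrichment normalised to the corresponding GST SELEX round; RNA k-mers written as DNA (T for U).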

Chain of IMP3 KH1-4 (chain, as listed by the source): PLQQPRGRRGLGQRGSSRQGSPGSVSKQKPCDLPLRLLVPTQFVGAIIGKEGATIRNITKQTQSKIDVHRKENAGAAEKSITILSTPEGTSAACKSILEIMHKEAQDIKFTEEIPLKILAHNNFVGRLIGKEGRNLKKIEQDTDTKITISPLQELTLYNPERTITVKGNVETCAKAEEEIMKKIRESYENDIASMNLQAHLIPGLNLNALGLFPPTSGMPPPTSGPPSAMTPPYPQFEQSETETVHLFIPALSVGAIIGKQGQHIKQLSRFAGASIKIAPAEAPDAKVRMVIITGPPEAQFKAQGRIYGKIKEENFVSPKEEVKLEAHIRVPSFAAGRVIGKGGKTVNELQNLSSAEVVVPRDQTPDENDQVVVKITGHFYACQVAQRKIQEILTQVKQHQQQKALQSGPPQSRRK

Sequence	6-mer SELEX enrichment z-score [1]	6-mer SELEX enrichment z-score [2]	6-mer SELEX enrichment z-score [3]	6-mer SELEX enrichment z-score [4]	6-mer SELEX enrichment z-score [5]
GCTTAG	-0.447	0.224	-0.236	-0.334	-0.154
TGCTTG	-0.095	0.158	-0.111	-0.077	-0.028
AGCACC	-0.509	0.203	0.439	-0.535	-1.02
CGACTC	-0.902	-0.35	-0.55	-0.836	-1.2
AAGGCC	-0.132	-0.672	-0.137	-0.062	0.118
AATCTG	-0.058	-0.236	-0.203	-0.03	-0.192
TAACCC	-1.34	-1.15	-1.71	-1.38	-1.81
TTTGGT	0.028	0.572	0.209	0.121	0.285
TAGTCC	-0.042	0.028	-0.194	-0.167	-0.307
TGGAAA	0.08	-1.09	-0.827	-0.174	0.253
GCAGCG	-0.596	0.132	0.6	-0.446	-0.425
TGAAAC	-0.306	-1.31	-1.07	-0.279	0.038
ACACTT	1.37	0.947	0.77	1.51	0.81
ATAGTC	0.573	0.262	0.427	0.354	0.46
GCGGCG	0.556	0.299	1.28	0.487	0.706
TGTGTG	0.823	0.266	-0.03	0.485	0.56
ACTGGA	0.133	-0.502	-0.393	-0.058	-0.096
ACGGGT	-0.566	-0.125	-0.076	-0.424	-0.231
AATGTG	0.763	-0.646	-0.615	0.212	0.916
TTACAT	1.88	0.859	1.15	1.96	1.93

Sequence	6-mer SELEX enrichment z-score [1]	6-mer SELEX enrichment z-score [2]	6-mer SELEX enrichment z-score [3]	6-mer SELEX enrichment z-score [4]	6-mer SELEX enrichment z-score [5]
TCTTGT	-0.245	0.524	0.024	-0.163	-0.078
CGTATC	-0.972	0.142	-0.376	-0.852	-0.855
TATGTT	0.495	0.279	0.038	0.356	0.632
TTTTAC	0.721	0.112	0.03	0.817	1.09
ACGTCC	-0.883	-0.321	-0.212	-0.898	-1.2
GTCTCT	-0.197	0.62	0.329	-0.037	0.065
ATCATC	1.36	2.42	2.6	1.1	0.669
GTATAT	0.682	0.056	0.146	0.554	1.05
AGCAAG	-0.175	0.094	0.317	-0.179	-0.108
CAGGCC	0.723	0.212	1.12	0.571	0.162
GTCATG	0.202	0.174	0.405	0.08	0.164
TTGTTG	-0.033	0.422	-0.142	-0.071	0.139
ATCTAG	-0.171	0.142	-0.126	-0.24	-0.079
CCTGAC	-1.49	-0.955	-1.53	-1.29	-1.7
GGACAT	0.995	0.065	0.773	0.633	0.758
AGTCGT	0.047	0.112	0.202	-0.047	0.062
GATACT	0.007	-0.301	-0.278	-0.015	0.141
CCGGGT	-0.817	-0.187	-0.076	-0.607	-0.593
GGAGTA	0.262	-0.206	0.124	0.227	0.391
AGTTAA	-0.302	-0.372	-0.582	-0.332	0.042

Sequence	6-mer SELEX enrichment z-score [1]	6-mer SELEX enrichment z-score [2]	6-mer SELEX enrichment z-score [3]	6-mer SELEX enrichment z-score [4]	6-mer SELEX enrichment z-score [5]
GGTAAA	-0.287	-0.689	-0.625	-0.399	0.096
GAAACT	-0.475	-1.3	-1.15	-0.408	-0.164
TCAGAC	-0.049	0.929	0.445	0.049	-0.237
TTACGT	0.157	0.067	-0.176	0.035	0.199
TTTTCG	-0.034	0.349	-0.042	-0.001	0.134
CCATTA	1.07	0.539	0.46	0.947	0.888
GATCGA	-1.02	-0.584	-0.496	-1.01	-0.823
GCTGAA	-0.625	-0.576	-0.575	-0.543	-0.506
CTGTTA	0.297	-0.035	-0.087	0.25	0.191
TTTCGT	0.093	0.401	0.161	0.173	0.316
CGGGCT	-0.574	0.202	0.299	-0.406	-0.295
CGAGAG	-1.3	-0.662	-0.676	-1.14	-1.1
CATAGT	0.24	0.746	0.59	0.078	0.206
CTATTA	1.14	0.175	0.055	1.04	1.49
GCGGAG	-0.445	-0.302	0.107	-0.201	-0.209
GACCAA	-1.52	-0.661	-1.66	-1.45	-1.75
ATTCGG	0.471	0.234	0.652	0.215	0.55
AGCAAA	-0.884	-0.08	-0.329	-0.722	-0.698
CCGTCG	-0.199	0.119	0.462	-0.184	-0.418
GCTCGT	-0.464	0.344	0.032	-0.326	-0.242
